# Measured values taken from the supplement of paper PMC12217912.
# Some of the results follow. The full chains were built here from the parent and the listed change. Values near 0.05 are background.
# B1: TEV protease; numbered along this chain (parent)
# chain: MGESLFKGPRDYNPISSSICHLTNESDGHTTSLYGIGFGPFIITNKHLFRRNNGTLVVQSLHGVFKVKDTTTLQQHLVDGRDMIIIRMPKDFPPFPQKLKFREPQREERICLVTTNFQTKSMSSMVSDTSCTFPSGDGIFWKHWIQTKDGQCGSPLVSTRDGFIVGIHSASNFTNTNNYFTSVPKNFMELLTNQEAQQWVSGWRLNADSVLWGGHKVFMVKPEEPFQPVKEATQL
# Variants of: B1
# Assay: raw area under fraction-flipped curve 0-4 h after induction (AUC4h, not background-subtracted), DNA-recorder readout of cleavage of the substrate (dimensionless); higher = more cleavage of the substrate by the protease variant
# Conditions: temperature: 34 °C; time window: 0-4 h after rhamnose induction
# Protocol: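 In vivo DNA recorder in E. coli TOP10(DE3) ΔrhaA at 34 °C. Each TEVp single-site mutant (parent TEVp 0) is paired with a single-site variant of the 7-mer TEVs (canonical ENLYFQ|S). The substrate sits between flexible linkers in a Bxb1-sfGFP-TEVs-SsrA fusion, so cleavage stabilises Bxb1 and speeds flipping of a recombination array, read by NGS. The value is the raw area under the fraction-flipped curve over 0-4 h after rhamnose induction (AUC4h), with ≥20 reads per time point. It is not background-subtracted; inactive controls average about 0.047.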
# 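Also: Bxb1 expression induced with 0.2% (w/v) L-rhamnose at OD600 near 0.5, cultures sampled hourly, flipped fraction per protease–substrate barcode pair counted by paired-end Illumina sequencing.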
Variant,area with substrate EALYFQS,area with substrate ECLYFQS,area with substrate EDLYFQS,area with substrate EELYFQS,area with substrate EGLYFQS,area with substrate EHLYFQS,area with substrate EILYFQS,area with substrate EMLYFQS,area with substrate ERLYFQS,area with substrate ESLYFQS,area with substrate EVLYFQS,area with substrate EFLYFQS,area with substrate EKLYFQS,area with substrate ELLYFQS,area with substrate EPLYFQS,area with substrate EQLYFQS,area with substrate ETLYFQS,area with substrate EWLYFQS,area with substrate EYLYFQS
T55I,0.108,0.0997,0.0864,0.11,0.0841,0.092,0.0955,0.0956,0.0954,0.0746,0.097,,,,,,,,
V57K,0.0857,0.105,0.159,0.123,0.109,0.0941,0.112,0.094,0.135,0.109,,0.0909,0.123,0.088,0.0968,0.124,0.113,,
V57M,0.12,0.0951,0.138,,0.086,0.0952,0.106,0.126,0.102,0.112,0.0821,,0.0915,0.0887,0.118,0.121,,0.105,0.117
V57T,0.104,0.116,,0.141,,0.0997,0.108,0.111,0.112,0.102,0.0952,0.0961,0.0766,0.111,,0.126,,0.118,
V57Y,0.127,0.0953,0.0612,0.116,0.0874,0.108,0.0839,0.105,0.077,0.105,0.0907,0.09,0.111,0.0882,,0.11,0.102,,0.114
Q59V,0.104,0.125,0.105,0.111,0.104,,0.115,0.12,,0.115,,,0.106,,,,0.114,,
S60F,0.155,0.0776,,0.107,0.0921,0.105,0.103,,0.097,0.111,,,0.0935,0.0884,0.118,0.119,,0.0891,
S60V,0.115,0.101,0.117,0.0953,0.0784,0.153,0.0944,0.113,0.0884,0.095,0.0829,0.0925,0.0894,0.0888,0.101,0.103,0.0891,0.0988,0.0835
L61A,0.11,0.102,0.0981,0.114,0.0703,,0.105,,0.0767,0.101,,,,0.0851,,0.107,,0.0915,0.0923
G63F,0.114,0.0825,0.11,0.114,,0.0895,0.0695,0.123,0.0874,0.102,0.0734,,,0.069,,,0.0985,0.0752,
G63I,0.116,0.0866,0.0946,0.0802,,0.0891,0.0789,0.118,0.087,0.0863,0.0935,,0.0708,0.0857,,0.116,,,0.084
G63M,0.098,0.114,0.106,,0.0751,,0.0801,0.104,0.106,0.0786,,0.0759,,,0.142,,,0.0817,
G63N,0.114,0.0671,0.119,0.112,,,0.0928,0.0776,0.0577,0.0919,0.0525,0.0937,,0.0796,0.1,0.105,0.0684,,0.102
